Experimental data published in PubChem BioAssay AID434955 (Southern Research Specialized Biocontainment Screening …, 2010).
This is one part of the list. Further columns of the screen follow, without active or inactive calls. The list favours compounds with an active or inconclusive main result.

assay: beta-lactam sensitization of Mtb H37Rv, H37Rv (AID 434955);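 further: growth measured after seven days incubation then overnight dye step; 0% = bacteria only wells and 100% = bacteria with antibiotic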; conditions: M. tuberculosis H37Rv growth with meropenem, percent inhibition; measured here: primary screen without meropenem; at 25 µM

Row | SMILES | inhibition [%]
1 | C=CCSc1nc(O)c(CC)c(=O)n1C(C)CC (stereo not drawn) | 12
2 | COC(=O)c1ccccc1NC(=S)N(Cc1ccc2c(c1)OCO2)Cc1cc2ccc(C)cc2[nH]c1=O | 3.23
3 | CCOC(=O)c1sc(NC(=O)Nc2ccc(Cl)cc2)cc1C | 27.3
4 | O=C(Nc1cccc([N+](=O)[O-])c1)C1CCN(C(=O)Cc2ccccc2)CC1 | -5.78
5 | O=C(NCc1ccc(F)cc1)c1ccc2c(=O)n3c(nc2c1)CCCCC3 | -5.67
6 | Cc1cc(Nc2nc3ccccc3nc2Cl)n(-c2ccccc2)n1 | 3.71
7 | Cc1ccc(S(=O)(=O)c2cn(C)c3cc(N4CCN(C)CC4)c(F)cc3c2=O)c(C)c1 | 5
8 | O=C(CC1Nc2ccccc2NC1=O)c1ccccc1 (stereo not drawn) | 24
9 | CCOc1ccc(-c2cnc3n2CCC3)cc1 | 13.4
10 | c1ccc(Nc2ncnc3c2oc2ccccc23)cc1 | 40
11 | CS(=O)(=O)N1CCc2ccc(NC(=O)C3CCCO3)cc2C1 (stereo not drawn) | 4.12
12 | CCn1c(=O)n(CC)c2cc(S(=O)(=O)Nc3ccccc3C)c(C)cc21 | 1.92
13 | Cc1ccc(C(=O)CC(=O)c2ccccc2C)c(O)c1 | 83.8
14 | COc1ccc(NS(=O)(=O)c2cc(NC(=O)c3ccccc3F)ccc2N2CCCC2)cc1 | 1
15 | CC(C)C[C@H](NC(=O)C1(c2ccccc2)CCN(C(=O)OC(C)(C)C)CC1)C(=O)N1CCC[C@H]1C(=O)O | -5.87
16 | FC(F)(F)c1cc(-c2ccco2)nc(NCc2ccccc2)n1 | 7.03
17 | CCOC(=O)C1CCCN(C(=O)Cn2nc(C)n3c(cc4c(OC)cccc43)c2=O)C1 (stereo not drawn) | -3.89
18 | O=C(CCSc1nnc(-c2ccncc2)o1)Nc1ccccc1Cl | 38
19 | CCOc1ccccc1-c1nc(CN2CCC(C(=O)N3CCOCC3)CC2)c(C)o1 | 3.56
20 | O=C(C1CCCO1)N1CCN(C(=S)Nc2ccc(Br)cc2)CC1 (stereo not drawn) | 1.27
21 | COCCCNC(=O)CS(=O)(=O)Cc1nc(-c2cccc(OC)c2)oc1C | -4.52
22 | CN1c2ccccc2C(=O)NC1c1ccc([N+](=O)[O-])s1 (stereo not drawn) | -0.59
23 | CC1CC1C(=O)Nc1nc(-c2cccs2)c(-c2cccs2)s1 (stereo not drawn) | -3.86

Row | SMILES | inhibition [%]
24 | O=C(COCc1cc(-c2ccc3c(c2)OCO3)on1)N1CCN(c2cccc(C(F)(F)F)c2)CC1 | 8.12
25 | Cc1cc(=O)[nH]c(N/N=C/c2c(O)n(-c3ccccc3)c(=O)c3ccccc23)n1 | 31.9
26 | CCn1c(=O)cc(OCC(=O)Nc2ccc3c(c2)OCCO3)c2ccccc21 | -1.9
27 | O=c1c(O)c(-c2ccc3c(c2)OCO3)oc2ccccc12 | 35.4
28 | Cc1cc(=O)oc(C)c1C(=O)O | 1.02
29 | Cc1cc(C)c2oc(=O)cc(CN3CCN(Cc4ccccc4)CC3)c2c1 | 15.7
30 | O=C(CCCC(=O)N1CCN(c2cccc(Cl)c2)CC1)c1ccccc1 | -1.38
31 | CCCn1cc(S(=O)(=O)c2ccccc2)c(=O)c2cc(OC)c(OC)cc21 | -1.2
32 | COc1cccc(CN2CC(C(=O)NCCSc3nnnn3C)CCC2=O)c1 (stereo not drawn) | -0.14
33 | COc1ccc(C2/C(=C(/O)c3ccccc3)C(=O)C(=O)N2CC(C)O)c(OC)c1 (stereo not drawn) | -2.77
34 | O=C(/C=C/c1ccc(OC(F)F)cc1)OCC(=O)N1CCN(C(=O)c2ccco2)CC1 | 28.2
35 | CC(C)COC(=O)N1C[C@H](O)C[C@H]1C(=O)Nc1ccc(Cl)cc1 | -6.15
36 | Cc1cccc(OCC(=O)NC(=S)NNC(=O)c2ccncc2)c1 | -1.16
37 | COc1ccc(NC(=O)c2cccc(N3C(=O)C4C5CCC(C5)C4C3=O)c2)cc1 (stereo not drawn) | -6.24
38 | CCOc1ccccc1C(=O)OCC(=O)Nc1ccc(N2CCCCC2)cc1 | -8.11
39 | Fc1ccc(-c2nnc(Cc3nnc(-c4ccc(F)cc4)o3)o2)cc1 | 0.21
40 | COCc1cc(=O)n2[nH]c(C)nc2n1 | 0.12
41 | CC(=O)N1CCCc2cc(S(=O)(=O)NC(C(=O)NC(C)c3ccccc3)C(C)C)ccc21 (stereo not drawn) | -7.75
42 | Cc1cc(C)c(C(=O)N(C)CC2CCCN(CCc3ccccc3F)C2)o1 (stereo not drawn) | 7.36
43 | NC(=O)[C@@H]1CC2(CC(c3cccc(NC(=O)COc4ccc(Cl)cc4)c3)=NO2)CN1C(=O)COc1ccc(Cl)cc1 (stereo partly drawn) | 15.5
44 | CCOC(=O)c1ccc(N2CN(C3CCCCC3)CNC2=S)cc1 | 34.8
45 | C(=N\NC1=Nc2cccc3cccc1c23)/c1ccccc1 | 9.94
46 | CCCc1cc(N2CCCC(C(=O)NCC)C2)n2ncnc2n1 (stereo not drawn) | -0.73

Row | SMILES | inhibition [%]
47 | O=C(NCc1nnc(SCC(=O)N2CCCC2)o1)c1ccccc1 | -6.05
48 | COc1ccc(NC(=O)NCCN2C(=O)C3C4C=CC(C4)C3C2=O)cc1 (stereo not drawn) | -5.48
49 | CCc1noc(C)c1C(=O)OCC(=O)Nc1ncc(Cl)cc1Cl | 1.1
50 | O=C(CN1CCN(c2ccccn2)CC1)Nc1cccc(Cl)c1Cl | 16.5
51 | COc1ccc(N2CCN(C(=O)COCc3cc(-c4ccc5c(c4)OCO5)on3)CC2)cc1 | 2.66
52 | Cc1cccc(N2C(=NC(=O)c3ccccc3)SC3CS(=O)(=O)CC32)c1 (stereo not drawn) | 5.84
53 | COc1ccc(NC(=O)CSc2nnc(Cn3c(=O)sc4ccccc43)n2C)c(OC)c1 | -5.52
54 | COc1cccc(C(=O)Nc2nnc(CCS(=O)(=O)c3ccc(C)cc3)s2)c1 | -1.7
55 | CC(C)OCC(O)CN1CC2C[C@@H](C1)Cn1c2cccc1=O (stereo partly drawn) | -4.95
56 | Cc1sc2ncnc(SCC(=O)N3CCCC3=O)c2c1C | 9.37
57 | Cc1ccc(C)c(NC(=O)CS(=O)(=O)c2c[nH]c3ccccc23)c1 | -3.63
58 | CN1CCN(c2oc(-c3ccccc3Cl)nc2S(=O)(=O)c2ccccc2)CC1 | 7.05
59 | COC(=O)COc1ccc2c(c1)O/C(=C\c1ccco1)C2=O | 98.6
60 | CN(N)C(=S)NCc1ccccc1 | -0.45
61 | CCN(CCCNC(=O)C1CCN(C(=O)c2cc3sccc3n2C)CC1)Cc1ccccc1 | -0.2
62 | CCOC(=O)C(=Cc1ccc(F)cc1)C(=O)OCC | 27.4
63 | Cc1ccccc1N1CCN(Cc2c(C#N)c3ccccc3n2C)CC1 | -8.69
64 | Cc1cc2oc(=O)cc(CN3CCCCC3C)c2cc1Cl (stereo not drawn) | -4.81
65 | Cc1cc(Cl)ccc1OCCCC(=O)Nc1cccc(-n2cnnn2)c1 | -6.32
66 | COc1ccc(OC)c(C2=NOC(C(=O)N3CCC4(CC3)OCCO4)C2)c1 (stereo not drawn) | 0.54
67 | Cc1ccc(CC(=O)Nc2nnc(-c3ccc(F)cc3)o2)c(C)c1 | 55.7
68 | Cc1ccc2c(CC(=O)OCc3nc(N)nc(Nc4ccccc4C)n3)coc2c1 | 17.7
